Measured values taken from PubChem BioAssay AID652106 (National Center for Advancing Translational Sciences (NCATS), 2013).
The campaign covered roughly 370,000 compounds. About 500 (0.14%) were called active. This list was built around the results that the source calls inconclusive (neither active nor inactive); the mix of calls is not that of the screen. The call rests on the fitted dose curve; in most records, active means well fitted activation curve with a large enough effect; inconclusive means small, poorly fitted or top-dose-only effect; inactive means no such curve, though single readings can be large or run the other way. No potency is given beside an inconclusive call; the fits are too rough.
Potency means the concentration at half of the fitted maximal effect; tags describe the fitted curve by direction and shape.

Assay: qHTS of alpha-syn Inhibitors; further: nearly all actives have a fitted effect of over 65% in size
Conditions: Yeast expressing alpha-synuclein, BacTiter-Glo, 24 h; Potency: growth rescue unless noted; series mostly up to 46.1 µM
Procedure, shortened: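 Readout is rescue of growth in alpha-synuclein-expressing yeast, so inhibitors of toxicity appear as activators. Growth after 24 hr at 30 deg C in galactose medium is quantified by luminescence.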
For `CCc1ccc(S(=O)(=O)NCCc2csc(-c3ccccc3)n2)s1`, the Potency was inconclusive [activator, single point]. With `CCCN1CCC(=O)N([C@H](COc2ccccc2)Cc2ccccc2)CC1` the Potency was “inactive”. In the case of `CC(C)(C)NC(=O)CN(C(=O)CCC(=O)Nc1nccs1)c1cccc(C(F)(F)F)c1`, the Potency was inconclusive [activator, single point]. With `Cc1nc2scc(C)n2c(=O)c1S(=O)(=O)N1CCN(c2ccccc2F)CC1` the Potency was inconclusive [activator, single point]. For `N#Cc1c(N)c(C(=O)c2ccccc2)n2ccccc12`, the Potency was inconclusive [activator, single point]. For `COc1cccc(C2CC(=O)Nc3cc4c(cc32)CCC4)c1` (stereo not drawn), the Potency was inconclusive [activator, single point]. In the case of `CC1CCCC(NS(=O)(=O)c2ccc3c(c2)OCCO3)C1C` (stereo not drawn), the Potency was inconclusive [activator, single point]. In the case of `O=C(Nc1ccncc1)Nc1ccc(Cl)cc1Cl`, the Potency was inconclusive [activator, single point]. In the case of `COc1ccc(C(=O)NC(=S)N(Cc2ccccc2)Cc2ccccc2)cc1`, the Potency was inconclusive [activator, single point]. With `O=C(NCCc1ccccc1)C1CC(c2ccccc2O)=NO1` (stereo not drawn) the Potency was inconclusive [activator, single point]. For `CCN(C(=O)COC(=O)C1CCC(C(C)(C)C)CC1)c1c(N)n(Cc2ccccc2)c(=O)[nH]c1=O` (stereo not drawn), the Potency was inconclusive [activator, single point]. For `O=c1[nH]c2cc3c(cc2cc1CN(CCc1ccccc1)Cc1nnnn1CC1CCCO1)OCO3` (stereo not drawn), the Potency was inconclusive [activator, single point]. With `COC(=O)[C@]12CCCCC=C1N(Cc1ccc(Cl)cc1Cl)C(=O)[C@H](CC(=O)N1CCCCC1)C2` the Potency was “inactive”. In the case of `CC1CCc2c(sc(NC(=O)c3ccco3)c2C(=O)O)C1` (stereo not drawn), the Potency was “inactive”. For `COc1ccc(N(CC(=O)Nc2ccc(S(=O)(=O)N3CCOCC3)cc2)S(=O)(=O)c2ccc(F)cc2)cc1`, the Potency was inconclusive [activator, single point]. In the case of `CC(C)NC(=O)CSc1nc(Cc2cccs2)nc2ccccc12`, the Potency was inconclusive [activator, single point]. For `COc1ccc(CC(=O)Nc2cccc(-c3nnc(-c4ccco4)o3)c2)cc1`, the Potency was “inactive”. In the case of `O=C1NC[C@@H](CCCCN2CCN(CCc3ccc(O)cc3)C(=O)C2=O)N(CC2CCCCC2)C1=O`, the Potency was inconclusive [activator, single point]. With `CCc1cccc(C)c1NS(=O)(=O)c1cc(Br)cnc1N` the Potency was inconclusive [activator, single point]. With `CCNc1nc(C#N)nc(NCC)n1` the Potency was inconclusive [activator, single point]. For `Cc1ccc(-c2cn(-c3ccccc3)c(=S)[nH]2)cc1C`, the Potency was inconclusive [activator, single point]. For `O=C(COC(=O)CCCc1nc2ccccc2s1)Nc1ncc(Cl)cc1Cl`, the Potency was inconclusive [activator, single point]. In the case of `COc1cc(/C=C/C(=O)O)cc(S(=O)(=O)Nc2cc(S(=O)(=O)N3CCCCC3)ccc2Cl)c1OC`, the Potency was inconclusive [activator, single point]. In the case of `Oc1ccc(N=Nc2ccc3c(c2)OCCO3)c2ncccc12`, the Potency was inconclusive [activator, single point]. In the case of `CCOC(=O)Cc1ccc(Nc2nc3cc(-c4ccccc4C)sc3c(=O)n2C)cc1`, the Potency was inconclusive [activator, single point]. With `COC(=O)Cc1cc(=O)oc2c(C)c(O)ccc12` the Potency was inconclusive [activator, single point]. In the case of `N#CC(=Cc1ccc(O)c(O)c1)C(=O)NCc1ccccc1`, the Potency was “inactive”. For `C[C@@H](c1ccccc1)N1C[C@H](COCc2ccccc2)Oc2cc(N3CCC[C@@H]3CO)ccc2S1(=O)=O`, the Potency was inconclusive [activator, single point]. In the case of `COC1=C(C)C(=O)C2=C(C1=O)C1C3CC4=C(C(=O)C(OC)=C(C)C4=O)C(CNC(=O)C(C)=O)N3C(C#N)C(C2)N1C` (stereo not drawn), the Potency was inconclusive [activator, single point]. With `O=C(CSc1nnc(-c2ccc(F)cc2)o1)Nc1ccccc1N1CCOCC1` the Potency was inconclusive [activator, single point]. For `O=C(O)CCSCCC(=O)O`, the Potency was “inactive”. For `CCOC(=O)/C(C#N)=C/c1c(OCC)n(CC)c2ccccc12`, the Potency was “inactive”. In the case of `Cc1ccc(S(=O)(=O)N2CC=C(C(=O)NC3CC3)CC2)cc1`, the Potency was inconclusive [activator, single point]. With `COCCn1nnnc1C(c1cccs1)N1CCN(c2nc3ccccc3s2)CC1` (stereo not drawn) the Potency was inconclusive [activator, single point]. For `N/C(=N\C(=S)Nc1ccc2c(c1)OCO2)c1ccccc1`, the Potency was “inactive”. In the case of `COc1cc([N+](=O)[O-])ccc1NC(=O)Nc1cccnc1`, the Potency was inconclusive [activator, single point]. For `CC1(C)C(=O)N(c2ccccc2F)C(=O)c2ccccc21`, the Potency was inconclusive [activator, single point]. In the case of `COc1ccc(-c2nc(C(N)=O)c3c(n2)n(-c2ccccc2OC)c(=O)n3C)c(OC)c1`, the Potency was “inactive”. With `O=S1(=O)C=C(SCc2cccc(Cl)c2)Nc2ccccc21` the Potency was “inactive”. With `COc1cc(C(O)c2nc(-c3csc4ccccc34)cs2)ccc1F` (stereo not drawn) the Potency was inconclusive [activator, single point]. For `Cc1ccc2c(Cl)cc(Cl)c(OCC(=O)O)c2n1`, the Potency was “inactive”. In the case of `O=C(c1ccc(Cl)c(Cl)c1)N1CCC(=O)N(C(COCc2ccccc2)Cc2ccccc2)CC1` (stereo not drawn), the Potency was inconclusive [activator, partial curve]. For `Cc1ccc(SCc2ccc(C(=O)Nc3nccs3)o2)cc1`, the Potency was “inactive”.
